The full ranking holds about 110,000 compounds; the median of “z-score” is about -0.1, and the highest 2% start at about 2. The list shows a part of the results. Calls of active or inactive are those of the source.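 The calls were made as follows: active = z-score in the third read window above 3 or below -3; inactive = the rest.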

The experiment concerns the target Metabotropic glutamate receptor 8 (Rattus norvegicus) (UniProt P70579). The experiment is described as follows: mGluR8 Gi/Go-coupled signaling modulation – cell-based, rat, thallium flux, HTS, primary screen (AID 488969). The conditions noted are these: HEK293 rat mGluR8, GIRK (G protein-gated inwardly rectifying potassium channel) thallium flux, FluoZin2; at 10 µM; stronger effect = higher value; submaximal glutamate (EC20) added with thallium.
Chain of UniProt P70579 (P70579 whole entry, looked up): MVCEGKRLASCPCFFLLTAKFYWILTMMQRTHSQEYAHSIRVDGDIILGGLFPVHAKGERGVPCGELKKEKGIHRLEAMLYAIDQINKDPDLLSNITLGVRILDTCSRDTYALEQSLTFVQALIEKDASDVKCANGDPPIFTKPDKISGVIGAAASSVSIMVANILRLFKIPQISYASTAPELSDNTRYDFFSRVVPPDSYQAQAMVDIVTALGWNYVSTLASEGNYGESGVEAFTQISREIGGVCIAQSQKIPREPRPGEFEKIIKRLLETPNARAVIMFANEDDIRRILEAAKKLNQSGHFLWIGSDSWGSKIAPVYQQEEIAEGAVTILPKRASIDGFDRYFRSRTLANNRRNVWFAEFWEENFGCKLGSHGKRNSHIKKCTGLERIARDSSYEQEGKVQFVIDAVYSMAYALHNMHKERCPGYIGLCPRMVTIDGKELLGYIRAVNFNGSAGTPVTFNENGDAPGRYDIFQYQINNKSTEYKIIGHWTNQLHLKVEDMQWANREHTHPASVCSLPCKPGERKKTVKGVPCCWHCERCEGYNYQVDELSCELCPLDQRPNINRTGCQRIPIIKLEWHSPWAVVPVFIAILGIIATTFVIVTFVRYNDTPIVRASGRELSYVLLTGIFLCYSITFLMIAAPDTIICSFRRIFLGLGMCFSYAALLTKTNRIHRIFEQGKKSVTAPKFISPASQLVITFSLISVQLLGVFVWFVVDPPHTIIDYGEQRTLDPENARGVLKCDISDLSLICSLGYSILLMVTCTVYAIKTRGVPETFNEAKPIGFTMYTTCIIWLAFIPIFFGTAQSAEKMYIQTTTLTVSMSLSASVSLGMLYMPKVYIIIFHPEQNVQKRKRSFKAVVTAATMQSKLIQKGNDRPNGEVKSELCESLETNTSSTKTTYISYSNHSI
Compound `Cc1cc(C(F)(F)F)nn1Cc1ccc(C(=O)NCc2ccco2)o1` gave a z-score of -0.563.
The compound `O=C(NCCc1ccncc1)Nc1ccc(Cl)cc1` gave a z-score of 0.11.
Turning to `O=C(CC(Cc1ccccc1)C(=O)O)NCCc1ccc2c(c1)OCO2` (stereo unspecified), the z-score was -0.12.
To `CCOC(=O)C1CCCCN1Cc1cccc(F)c1` (stereo unspecified) belongs -0.455; to `COCCCNC(=O)c1ccc(-n2nc(C(F)(F)F)cc2-c2cccs2)cc1`, -0.291; to `CC(=O)Nc1ccc(S(=O)(=O)NCCSCc2cccc(Cl)c2)cc1`, -0.049.
In turn, `O=C(CCN1C(=O)c2ccccc2C1=O)Nc1ccc2c(c1)OCCO2` gave a z-score of 0.141.
Consider `COC(=O)c1ccccc1NC(=O)c1ccc(-c2ccc(Br)cc2)o1`, for which the z-score was -0.235.
In turn, `COc1ccc(-c2c3c(=O)n(C)c(=O)n(C)c3cn2C2CCCCC2)cc1` showed a z-score of -0.528.
In the case of `Cc1ccc(OCCn2cc(Br)c(=O)[nH]c2=O)cc1` it was -0.137; in that of `O=C(CN1C(=O)CCC1=O)Nc1ccc2c3c(cccc13)CC2`, -0.268.
For `O=C(CSc1nnnn1C1CCCCC1)N1CCc2ccccc21`, the z-score came to 0.136.
Compound `Cc1ccc(S(=O)(=O)N2CCN(C(=O)CC3CCCC3)CC2)cc1` registered a z-score of 0.49.
In the case of `O=C(COc1ccc(S(=O)(=O)NC2CCCCC2)cc1Cl)NCc1ccc2c(c1)OCO2`, the z-score is -0.138.
Compound `Nc1nc(-c2nc3ccccc3[nH]2)cs1` displayed a z-score of 0.263.
For `CC1(C)CC(=O)C2=C(C1)OC1=C(C2)C(=O)CC(C)(C)C1`, the z-score is -0.305.
`COCc1nc2ccccc2n1Cc1ccccc1Br` had a z-score of -0.624.
Regarding `C=CCOc1ccc(CNn2cn[nH]c2=S)cc1`, the z-score was -0.0745.
On to `FC(F)(F)c1cccc(NC(=S)NCC2COc3ccccc3O2)c1` (stereo unspecified), for which the z-score is -0.0718.
`O=C(C1CCCN(S(=O)(=O)c2cnc[nH]2)C1)N1CC(=O)N(CCc2ccccc2)C(=O)C1` (stereo unspecified) gave a z-score of -0.371.
As for `N/C(=N\OC(=O)COc1ccc2ccccc2c1)c1cccnc1`, the z-score is -0.592.
Take `CCn1nc(C)c(C(=O)Nc2cc(Oc3ccc(Cl)cc3)cc([N+](=O)[O-])c2)c1C`: the z-score was -0.261.
In the case of `Oc1ccc(Nc2ncnc3scc(-c4ccccc4)c23)cc1` it was -0.239; in that of `COC(=O)C1=C(NC(=O)C2CCCCC2)CCS1`, 0.125; in that of `COc1cccc(NC(=O)N2CCN(c3ccc(C(F)(F)F)cn3)CC2)c1`, -0.587.
Compound `Cc1occc1C(=O)N1CCN(c2ncccn2)CC1` displayed a z-score of -0.105.
In the case of `Cc1cc(C)n(-c2cc(C(C)(C)C)nc3c(-c4ccc(Cl)cc4)cnn23)n1` it was 0.19.
Compound `CCCOc1ccc(OCCSc2nnc(N)s2)cc1` came in with a z-score of -0.509.
As to `Cc1ccc(S(=O)(=O)N2CC3CCCN3c3ccc(C(F)(F)F)cc32)cc1` (stereo unspecified), the z-score was -0.64.
In turn, `O=C(Nc1ccc2c(c1)OCO2)c1ccc2c(c1)OCO2` had a z-score of -0.329.
The compound `CCC(CC)NC(=O)/C=C/c1cccc([N+](=O)[O-])c1` gave a z-score of -0.231.
As for `COc1ccc(C2/C(=C(/O)c3ccc(Cl)cc3)C(=O)C(=O)N2CCN2CCOCC2)c(OC)c1` (stereo unspecified), the z-score was -0.534.
`CCOC(=O)Cc1c(Sc2ccccc2)c2ccccc2n1C` yielded a z-score of -0.171.
`Cc1nc(P(=O)(c2ccccc2)c2ccccc2)c(N2CCOCC2)o1` had a z-score of -0.389.
Turning to `Cc1cc(=O)[nH]c(SCc2cccc(Br)c2)n1`, the z-score was -2.81.
Consider `O=C(c1cccs1)N1CCN(Cc2cccc([N+](=O)[O-])c2)CC1`, for which the z-score is -0.213.
Compound `Cc1c(Cl)cccc1NC(=O)CN1CCC(C(O)(c2ccccc2)c2ccccc2)CC1` gave a z-score of -0.0804.
Consider `O=C(Nc1cccc(-c2cn3ccsc3n2)c1)c1ccccc1`, for which the z-score is -0.241.
As to `CCOC(=O)c1c(C)[nH]c(C(=O)COC(=O)CN2C(=O)C3CCCCC3C2=O)c1C` (stereo unspecified), the z-score was -0.264.
With `COC(=O)c1ccccc1N(C)S(C)(=O)=O`, the z-score stood at 0.996.
Regarding `COC(=O)/C=C(\C)NC(=O)c1ccc(F)cc1`, the z-score is -0.317.
`COc1cccc(N2CCN(C(=O)Nc3ccc4c(c3)NC(=O)CO4)CC2)c1`: the z-score is -0.176.
For `COc1cc(/C=N/NC(=O)COc2ccccc2C)ccc1OC(=O)c1cccs1`, the z-score is 0.143.
`COCCOC(=O)c1cc(C(=O)c2cc(F)ccc2O)coc1=N` showed a z-score of 0.0298.
For the compound `CCOC(=O)c1ccc(Cn2cnc3ccccc3c2=O)cc1`, the z-score is -0.373.
For the compound `CCOC(=O)c1ccc(S(=O)(=O)n2c(CN3CCCCC3)nc3ccccc32)cc1`, the z-score is 0.0659.
`CCOC(=O)CCCCC(=O)c1[nH]c(=O)[nH]c1CSc1nc2ccccc2[nH]1` displayed a z-score of -0.114.
To `O=C(OCC(=O)N1CCN(C(=O)c2ccco2)CC1)c1cn(-c2ccccc2)nc1-c1ccccc1` belongs -0.35; to `O=C(NCc1ccc2c(c1)OCO2)c1cc(-c2ccc(Cl)cc2Cl)on1`, -0.885; to `CCOC(=O)C1CCN(S(=O)(=O)C(F)(F)c2nc3ccccc3s2)CC1`, -0.0185.
Consider `FC(F)(F)c1cc(C(F)(F)F)c2ccc(N/N=C/c3ccccc3)nc2n1`, for which the z-score is 0.736.
In turn, `CCN(CC)CCCNC(=S)N1CCn2c(nc3ccccc32)C1` showed a z-score of -0.203.
`COc1ccc(S(=O)(=O)N2c3cc(Cl)ccc3Oc3nc4ccccc4nc32)cc1` came in with a z-score of -0.314.
Take `CC(C)(C)c1ccc(O)c(N)c1`: the z-score is -0.743.
In the case of `CC(C)(CNS(=O)(=O)c1ccc(F)cc1)CNS(=O)(=O)c1ccc(F)cc1` it was 0.051.
`CCOC(=O)c1c(C)[nH]c(C)c1C(=O)CSc1nc2ccccc2n1CCOC` came in with a z-score of -0.301.
`COC(=O)C(NC(=O)C(C)Oc1ccccc1)C(C)C` (stereo unspecified) returned a z-score of 0.876.
On to `O=C(C1CC(=O)N(c2ccccc2)C1)N1CCN(C2=NS(=O)(=O)c3ccccc32)CC1` (stereo unspecified), for which the z-score was 0.289.
As to `COc1ccccc1NS(=O)(=O)c1cc(NC(=O)CNC(=O)c2ccc(C)s2)ccc1Cl`, the z-score is -0.021.
Take `CCOC(=O)CC1C(=O)NCCN1S(=O)(=O)c1ccc(Cl)cc1` (stereo unspecified): the z-score was 0.124.
In turn, `O=c1[nH]c(CN2CCCCC2)nc2c1C1(CCCCC1)Cc1ccccc1-2` gave a z-score of 0.662.
In the case of `O=c1[nH]c2cc3c(cc2cc1C(c1nnnn1CC1CCCO1)N1CCCCCC1)OCO3` (stereo unspecified), the z-score was -0.476.
To `COc1ccc(NC(=O)c2cc3ccccn3n2)cc1` belongs -0.0979; to `COCC(=O)Nc1ccc(S(=O)(=O)NCCc2ccccc2)cc1`, 0.711; to `Cc1ccc2nc(C)c(C(=O)N/N=C/c3cccc([N+](=O)[O-])c3)cc2c1`, -0.517.
For the compound `CC(=O)Nc1cccc(C(=O)Nc2ccccc2C(=O)O)c1`, the z-score is -0.0865.
As to `COc1ccc(NC(=O)C2CCCO2)cc1OC` (stereo unspecified), the z-score came out at 0.126.
With `COc1ccc(/C=N/NC(=S)NC2CCS(=O)(=O)C2)cc1` (stereo unspecified), the z-score is -0.113.
Compound `OC(COC(c1ccc(Cl)cc1)c1ccc(Cl)cc1)CN1CCCC1` (stereo unspecified) yielded a z-score of -0.0693.
In the case of `Cc1ccc(NC(=O)c2ccc(-n3cccn3)c([N+](=O)[O-])c2)cc1`, the z-score was -0.356.
`O=C(Nc1ccc(Cl)cc1C(F)(F)F)c1ccccc1Cl` gave a z-score of -0.22.
Compound `Cc1ccc(C(=O)CNc2ccccc2C)cc1` registered a z-score of -0.166.
Consider `CN(C(=O)CSc1nc(N)c2c3c(sc2n1)CSC(C)(C)C3)c1ccccc1`, for which the z-score is -0.67.
`Cc1ccc(-n2nnnc2SCC(=O)Nc2ncc(Cc3ccccc3Cl)s2)cc1` registered a z-score of -0.0274.
`COc1ccc2nc(NC(=O)c3ccoc3C)sc2c1` yielded a z-score of 0.209.
In the case of `Cc1cc2c(C)nc(N/N=C/c3ccc(F)cc3)nc2o1` it was -0.0517.
To `Cc1c(Cl)cccc1Nc1nc(N)nc(CSc2nc3ccccc3s2)n1` belongs 0.566; to `CN(C)CCN1C(=O)c2oc3ccccc3c(=O)c2C1c1cccc(Br)c1` (stereo unspecified), 0.553.
On to `C=CCn1cnc2scc(-c3ccc(CC)cc3)c2c1=O`, for which the z-score was -0.474.
`CCNC(=O)CCCOc1ccc(Cl)cc1Cl`: the z-score is -0.106.
`CCc1ccc(CNc2ccc(O)cc2)cc1`: the z-score is 0.141.
`Cc1cccc(CSc2nn3c(=O)c(C)nnc3s2)c1`: the z-score turned out to be 0.481.
`CCCn1c(SCC(=O)NC(=O)NCc2ccco2)n[nH]c1=O` registered a z-score of -0.027.
Compound `O=C(CCC(=O)OCC(=O)c1cccc([N+](=O)[O-])c1)Nc1cccc(Cl)c1Cl` displayed a z-score of -0.0921.
In the case of `S=c1[nH]nc(CSCc2ccc(Cl)cc2Cl)n1-c1ccccc1` it was active: 15.5.
With `COc1ccccc1NC(=O)C(NC(=O)OC(C)(C)C)C(C)OCc1ccccc1` (stereo unspecified), the z-score is -0.319.
For the compound `COC(=O)C(F)(F)Sc1c(C)[nH]c2ccccc12`, the z-score was determined as 0.171.
As for `Cc1ccc(C(=O)CSc2nc(C)cc(SCc3nnc(-c4ccccc4)o3)n2)cc1`, the z-score came to 0.0159.
`CCCCCC(=O)Nc1ccc2oc(-c3cncc(Br)c3)nc2c1` yielded a z-score of 0.45.
To `CN=C1SC(CC(=O)Nc2c(C)cccc2C)C(=O)N1/N=C/c1cccs1` (stereo unspecified) belongs -0.202; to `Cc1cc(N(C)C)cc(C)[n+]1[O-]`, -0.124.
The compound `O=C(Nc1ccccc1)c1ccc[n+](Cc2ccc([N+](=O)[O-])cc2)c1` had a z-score of 0.521.
To `COC(=O)c1cc(N2C(=O)C3C(C2=O)C2(C)C=CC3(C)O2)ccc1Cl` (stereo unspecified) belongs -0.393; to `CCN(CC)S(=O)(=O)c1ccc2c(c1)c(=O)c(C(=O)NCCOC)cn2C`, -0.267; to `OCCCc1nc2ccccc2n1CCc1ccccc1`, -0.263.
`CCCCN(CC)S(=O)(=O)c1ccc(C(=O)Nc2nnc(COC)o2)cc1` returned a z-score of -0.35.
For `COc1cc2c(cc1OC)CN(C(=O)CSc1nc(C)cc(C)c1C#N)CC2`, the z-score was -1.3.
`Cc1cc(-c2cccnc2)c(C#N)c(SCC#N)n1` came in with a z-score of 0.00995.
For `COC(=O)c1ccc(NC(=O)CSc2nncc3ccc(OC)c(OC)c23)cc1`, the z-score was -0.0993.
To `Cc1noc(NS(=O)(=O)c2ccc(NC(=O)CS(=O)(=O)c3ccccc3)cc2)c1C` belongs 0.155; to `Cc1onc(-c2c(F)cccc2Cl)c1C(=O)Nc1c(C)n(C)n(-c2ccccc2)c1=O`, -0.4.
In the case of `O=[N+]([O-])c1ccc(Oc2ccc(S(=O)(=O)Nc3ccccc3)cc2)cc1` it was -0.248.
In the case of `O=C(NCc1ccccn1)c1cccc([N+](=O)[O-])c1` it was -0.0692; in that of `C/C=C/c1ccc(OCCOc2cc(C=O)ccc2OC)c(OC)c1`, -0.21.
`CCOc1ccc(-n2c(SCC(=O)NCc3ccco3)nc3c([nH]c4ccccc43)c2=O)cc1` returned a z-score of -0.288.
Take `CCCCC(=O)Nc1ccc(C(=O)Nc2nnc(COC)s2)cc1`: the z-score was -0.311.
Consider `C=CCC(=O)OCC(=O)Nc1ccc(Oc2ccccc2)cc1`, for which the z-score came out at 0.194.
`CC1CCC2(CC1)NC(=O)c1ccccc1O2` (stereo unspecified) returned a z-score of 0.35.
In the case of `COc1ccc(CC(=O)O/N=C(\N)Cc2ccc(OC)cc2)cc1` it was -0.197.
With `Fc1ccc(CSc2ccc(-c3ccc4c(c3)OCO4)nn2)cc1`, the z-score is -0.368.
In the case of `CC(=O)N1CCc2cc(S(=O)(=O)NCCC(=O)Nc3cc(C)cc(C)c3)ccc21` it was -0.151.

(Values after PubChem BioAssay AID488969 (Vanderbilt High Throughput Screening Facility, 2010).)
